Data on two molecules can be found in PMC10801813, “In silico protein interaction screening uncovers DONSON’s role in replication initiation” (Science (New York, N.Y.), 2023).

Results are given in words; binding and its absence hold for the method and conditions named. Binding seen in cells or lysates may run through a third protein. Some entries that bind do so weakly or less than the wild type. Sequences can lack the tags named with a protein.

Test [1] concerns the target T1, FLAG-DONSON, wild type, expressed in wheat germ extract (Xenopus laevis), Q5U4U4.
T1 chain: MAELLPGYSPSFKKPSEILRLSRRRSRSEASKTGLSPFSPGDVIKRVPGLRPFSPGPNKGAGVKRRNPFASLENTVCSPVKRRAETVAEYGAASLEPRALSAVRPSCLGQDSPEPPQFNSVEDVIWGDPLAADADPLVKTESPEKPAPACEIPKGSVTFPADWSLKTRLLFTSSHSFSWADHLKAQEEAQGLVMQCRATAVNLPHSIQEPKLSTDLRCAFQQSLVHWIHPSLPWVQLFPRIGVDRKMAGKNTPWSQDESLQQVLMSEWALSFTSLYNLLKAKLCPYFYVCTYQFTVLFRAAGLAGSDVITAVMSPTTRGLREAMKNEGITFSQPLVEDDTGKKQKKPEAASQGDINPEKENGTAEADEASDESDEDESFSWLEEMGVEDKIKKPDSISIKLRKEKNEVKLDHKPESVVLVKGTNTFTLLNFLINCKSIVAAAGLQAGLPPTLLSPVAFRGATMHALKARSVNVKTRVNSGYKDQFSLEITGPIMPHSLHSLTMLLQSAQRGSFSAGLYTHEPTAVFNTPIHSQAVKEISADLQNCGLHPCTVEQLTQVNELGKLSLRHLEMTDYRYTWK
Briefly: co-IP; FLAG-DONSON proteins expressed in wheat germ extract pre-immobilised on anti-FLAG M2 magnetic beads, incubated with 30% NPE 1 h 4°C, eluted with 3× FLAG peptide, immunoblot (Fig. 4D, figs. S12 and S14). The conditions noted are these: remark: other sources report otherwise. (In western blotting, separated proteins are transferred to a membrane and probed.)

Test [2] addresses T2, Recombinant FLAG-tagged DONSON, wild type (Xenopus laevis), Q5U4U4.
T2 chain: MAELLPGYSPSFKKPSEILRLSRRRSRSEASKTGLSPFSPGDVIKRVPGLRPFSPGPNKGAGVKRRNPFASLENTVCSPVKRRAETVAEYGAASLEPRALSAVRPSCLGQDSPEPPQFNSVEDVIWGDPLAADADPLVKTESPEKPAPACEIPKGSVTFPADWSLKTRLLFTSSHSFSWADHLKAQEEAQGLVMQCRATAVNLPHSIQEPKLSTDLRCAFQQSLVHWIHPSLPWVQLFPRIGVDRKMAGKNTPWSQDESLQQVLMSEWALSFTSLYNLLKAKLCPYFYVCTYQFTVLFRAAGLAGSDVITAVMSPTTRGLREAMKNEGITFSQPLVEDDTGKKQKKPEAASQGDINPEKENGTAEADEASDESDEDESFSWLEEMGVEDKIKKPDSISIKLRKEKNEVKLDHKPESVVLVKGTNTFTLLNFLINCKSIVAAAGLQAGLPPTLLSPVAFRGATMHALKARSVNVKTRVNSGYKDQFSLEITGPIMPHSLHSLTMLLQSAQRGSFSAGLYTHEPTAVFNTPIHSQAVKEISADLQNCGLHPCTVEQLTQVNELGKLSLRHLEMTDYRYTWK
Nature of the test: co-IP; 1 μM purified recombinant FLAG-DONSON added to 30% non-replicating NPE (in IP wash buffer: 10 mM HEPES-KOH pH 7.7, 50 mM KCl, 2.5 mM MgCl2, 250 mM sucrose, 0.1 mg/mL BSA, 0.02% Tween 20), anti-FLAG M2 magnetic beads, 1 h 4°C, eluted with 3× FLAG peptide, immunoblot; in Fig. 3E NPE treated with buffer, p27^Kip (CDKi) or λ phosphatase; only the target purified. The conditions noted are these: remark: other sources report otherwise.

The target in test [3] is T3, Recombinant FLAG-tagged DONSON N430A (Xenopus laevis) (UniProt Q5U4U4).
T3 sequence: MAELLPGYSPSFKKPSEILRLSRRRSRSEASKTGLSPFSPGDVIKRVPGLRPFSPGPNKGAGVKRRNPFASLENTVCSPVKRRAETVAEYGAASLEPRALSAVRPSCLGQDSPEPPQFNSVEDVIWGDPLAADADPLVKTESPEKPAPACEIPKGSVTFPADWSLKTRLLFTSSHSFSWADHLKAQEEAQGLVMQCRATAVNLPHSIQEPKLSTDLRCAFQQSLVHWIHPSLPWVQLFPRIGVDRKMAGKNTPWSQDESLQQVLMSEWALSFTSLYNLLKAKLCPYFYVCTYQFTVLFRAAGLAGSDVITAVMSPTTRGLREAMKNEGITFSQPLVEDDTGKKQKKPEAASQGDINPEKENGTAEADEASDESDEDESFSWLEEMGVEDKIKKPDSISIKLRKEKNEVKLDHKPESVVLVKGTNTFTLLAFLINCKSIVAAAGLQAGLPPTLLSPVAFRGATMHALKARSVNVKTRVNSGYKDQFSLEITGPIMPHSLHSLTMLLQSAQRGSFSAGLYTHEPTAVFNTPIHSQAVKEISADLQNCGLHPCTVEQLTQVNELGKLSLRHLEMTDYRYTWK
Described as above.

Test [4] addresses T4, Recombinant FLAG-tagged DONSON Y8A (Xenopus laevis) (UniProt Q5U4U4).
T4 sequence: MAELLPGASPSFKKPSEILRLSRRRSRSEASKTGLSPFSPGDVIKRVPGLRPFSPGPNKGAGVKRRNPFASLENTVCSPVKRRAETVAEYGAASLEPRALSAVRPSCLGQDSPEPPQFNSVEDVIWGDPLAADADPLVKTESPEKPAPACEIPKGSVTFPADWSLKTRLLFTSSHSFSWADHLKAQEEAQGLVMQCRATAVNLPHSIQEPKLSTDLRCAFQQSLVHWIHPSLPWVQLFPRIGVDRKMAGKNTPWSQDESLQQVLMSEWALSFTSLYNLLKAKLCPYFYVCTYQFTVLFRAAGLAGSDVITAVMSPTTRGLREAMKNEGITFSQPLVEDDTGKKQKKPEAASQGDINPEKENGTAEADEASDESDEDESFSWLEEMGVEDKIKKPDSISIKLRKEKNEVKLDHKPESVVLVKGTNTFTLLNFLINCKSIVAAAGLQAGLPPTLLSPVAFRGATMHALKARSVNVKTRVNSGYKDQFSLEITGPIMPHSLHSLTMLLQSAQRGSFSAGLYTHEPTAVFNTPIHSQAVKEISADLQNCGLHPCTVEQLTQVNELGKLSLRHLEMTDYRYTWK
The description is as above.

Test [5] concerns the target T5, Recombinant FLAG-tagged DONSON, wild type (Xenopus laevis) (UniProt Q5U4U4).
T5 sequence: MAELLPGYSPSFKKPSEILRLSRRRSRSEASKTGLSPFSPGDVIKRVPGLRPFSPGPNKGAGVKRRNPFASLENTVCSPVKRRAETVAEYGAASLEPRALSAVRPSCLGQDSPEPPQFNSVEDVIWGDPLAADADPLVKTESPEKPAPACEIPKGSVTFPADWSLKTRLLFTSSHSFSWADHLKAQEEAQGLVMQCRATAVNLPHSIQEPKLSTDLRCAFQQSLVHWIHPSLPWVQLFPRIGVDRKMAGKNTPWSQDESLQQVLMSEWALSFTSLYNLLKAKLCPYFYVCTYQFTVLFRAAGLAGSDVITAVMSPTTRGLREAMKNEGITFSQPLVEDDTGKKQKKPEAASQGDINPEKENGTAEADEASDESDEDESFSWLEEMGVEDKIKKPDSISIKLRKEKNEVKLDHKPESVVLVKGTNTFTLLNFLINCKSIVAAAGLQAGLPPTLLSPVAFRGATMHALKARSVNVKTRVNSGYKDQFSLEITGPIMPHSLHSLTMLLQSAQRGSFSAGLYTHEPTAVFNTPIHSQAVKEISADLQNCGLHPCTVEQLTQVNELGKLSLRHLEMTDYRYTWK
The test is described as above.

Test [6] addresses T6, FLAG-DONSON DEWE→RRAR, expressed in wheat germ extract (Xenopus laevis) (UniProt Q5U4U4).
T6 sequence: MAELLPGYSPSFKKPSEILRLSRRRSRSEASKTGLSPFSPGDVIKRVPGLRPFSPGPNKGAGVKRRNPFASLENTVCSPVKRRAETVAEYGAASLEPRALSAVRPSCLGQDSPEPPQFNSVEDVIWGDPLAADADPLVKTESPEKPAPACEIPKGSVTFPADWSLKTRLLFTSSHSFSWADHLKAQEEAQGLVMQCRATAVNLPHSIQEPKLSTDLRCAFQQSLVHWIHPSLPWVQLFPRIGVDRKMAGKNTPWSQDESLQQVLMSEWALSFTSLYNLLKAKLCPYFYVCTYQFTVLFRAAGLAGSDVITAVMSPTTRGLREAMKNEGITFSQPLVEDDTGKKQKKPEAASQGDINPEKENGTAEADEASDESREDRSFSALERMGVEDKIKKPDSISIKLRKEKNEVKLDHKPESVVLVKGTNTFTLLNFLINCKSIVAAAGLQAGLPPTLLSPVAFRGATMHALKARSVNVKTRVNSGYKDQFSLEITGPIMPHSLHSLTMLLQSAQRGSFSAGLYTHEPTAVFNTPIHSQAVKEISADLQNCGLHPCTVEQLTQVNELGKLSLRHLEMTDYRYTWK
Nature of the test: co-IP; FLAG-DONSON proteins expressed in wheat germ extract pre-immobilised on anti-FLAG M2 magnetic beads, incubated with 30% NPE 1 h 4°C, eluted with 3× FLAG peptide, immunoblot (Fig. 4D, figs. S12 and S14).

B1: Endogenous MCM3 of Xenopus nucleoplasmic egg extract, P49739 1-807 (protein)
chain: MDYGGGFEDHELREAQREYLDFLDDDQDQGLYHGKVRDMIGSNEHRLIVNLNDVRRKNDKRANLMLNDAFAETIAFQRALKDLVASIDATYAKQFEEFSVGFEGSFGSKHVSPRTLTASLLGSLVCVEGIVTKCSLVRPKVMRSVHYCPATKKTLERKYSDLTSLEAFPSSSIYPTKDEENNPLETEYGLSTYKDHQTLSIQEMPEKAPAGQLPRSVDIIADDDLVDKCKPGDRVQIVGIYRCLPSKQGGFTSGTFRTILLANNIKLMSKEIAPTFSADDVAKIKKFCKAHSKDIFEHLSKSLAPSIHGHEYIKKAILCMLLGGNEKVLENGTRIRGDINVLLIGDPSVAKSQLLRYVLHTAPRAIPTTGRGSSGVGLTAAVTTDQETGERRLEAGAMVLADRGVVCIDEFDKMSDMDRTAIHEVMEQGRVTIAKAGIQARLNARCSVLAAANPVYGRYDQYRTPMENIGLQDSLLSRFDLLFIVLDKMDADNDQEIADHVLRMHRYRTPGEQDGYALPLGCSVEIFATDDPNASDVTDQELQIYEKHDNLLHGPRKNKSKIVSMQFIRKYIHVAKLIKPVLTSEAADYISQEYAKIRNHDQINNDSARTMPVTARALETMIRLSTAHAKVRMSKTIERQDAETALELVQFAYFKKVLAKEKKKTDKDLHDENLSQDTLSQESVRKSSRRAGKIADSQDDSMDPYSFSEQDSSLNENLSQSLRPQRKKAESQDGKRSLSQNRTKEFKAALLKAFKSSRSQSVAVSQLLELINKGNPEPFERSEVKEALDNMQNDNQVMVSEDVVFLI
On to B1, for which the binding entry in test [1] is “no binding”; in test [2], “no binding (tested: 1 μM FLAG-DONSON in 30% NPE)”.

B2: Endogenous GINS of Xenopus nucleoplasmic egg extract (complex, UniProt Q7ZT47 1-196; Q7ZT46 1-185; Q7ZT01 1-210; Q7ZT48 1-221)
chain 1: MFCEKAIELIRELQRASDGQLPAFNEDGIRQILEEMKALYEQNQADVNEAKTEGRSDLIPTIKFRHCCLLRNRRCIVAYLYDRLLRIRALRWEYGSVLPSALRFHMSTEEMDWFNQYKRSLATYMRSLGGEEGLDITQDMKPPKSLYIEVRCLRDYGEFEIDDGTTILLKKNSQHFLPRWKCEQLIRQGVLEHVLS
chain 2: MDASEVEFLAEKEQVTVIPNFSLDKVYLIGGDLGPFNPSLPVEVPLWLAINLKQRQKCRIVPPEWMDVEKLEAIRDQERREETFTPMPSPYYMELTKLLLNHAADNIPKADEIRTLVKDTWDTRIAKLRLSADSFVKGQEAHAKLDNLTLMEINTIGTFFTESLNHMYKLRTSLQNPEEGQSQDY
chain 3: MWEPYMPVEPGLGREENFLSLEDLLMSQEKLPCCIESGFPRLGFLDKGGDSDSIPEGSKMELPLWLAKGLYDNKRRVLSVELPKIYREGWRTVFSADANVVDLHKMGPHYYGFGSQLLNFDSPENPEIAKTILQTFVGRFRRIMDSSQNAYNEDTSGLVARLDELERSLFRAGQRGLNAFQSWERGKAAQITASNLVQNYKKRKFNEADA
chain 4: MEDELALSDQGSDEDEEVLTPAELINKLEEAWLNEKFAPELLESKSEVVECVMEQLNHMEQNLHRAKPGDLKISFHHMEIERIRYMLSSYLRSRMLKIEKFFPHILEKEKSRGEGEPPHLSPEEFAFAKEYMTNTETLLKSVALRHMPPNLQTVDLLKSVPKPNLDSFVFLRVKEEQNNILVEPETDEQSEYAIDMEVGSQHLIRYRTIAPLVASGAVKLI
With B2, the binding result is listed as “binds” in test [3], “no binding (tested: 1 μM FLAG-DONSON in 30% NPE)” in test [4], “binds” in test [5] and “binds” in test [6].
